The full ranking holds about 81,000 sequences; the median of “one-hybrid fitness for binding NBS DNA” is about -0.1, and the highest 2% start at about 0.36. The list shows a part of the results.
B1: Caulobacter ParB omega fusion; a variant is named by its letters at X, in order, B8GW30 (parent)
chain: MESVVVGEPGMSEGRRGLGRGLSALLGEVDAAPAQAPGEQLGGSREAPIEILQRNPDQPRRTFREEDLEDLSNSIREKGVLQPILVRPSPDTAGEYQIVAGERAWRAAQRAGLKTVPIMVRELDDLAVLEIGIIENVQRADLNVLEEALSYKVLMEKFERTQENIAQTIGKSXSHVANXMRLLXLPDEVQSYLVSGELTAXHARAIAAAADPVALAKQIIEGGLSVRETEALARKAPNLSAGKSKGGRPPRVKDTDTQALESDLSSVLGLDVSIDHRGSTGTLTITYATLEQLDDLCNRLTRGI

Variants of: B1
Test: one-hybrid fitness for binding NBS DNA (the Noc-binding site; scaled: cognate 1, non-cognate 0); higher = stronger binding
Conditions: with NBS DNA site
How it was run: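 Bacterial one-hybrid selection in E. coli USO rpoZ- hisB- pyrF- with a HIS3 reporter carrying the site 19 bp from the promoter, screening Caulobacter ParB libraries with four specificity codons randomised (NNS). Cells grew 48 hours at 37°C on M9-minus-histidine plus 0.1 mM IPTG and 5 mM 3-AT. Plasmids before and after selection were Illumina-sequenced, three replicate libraries pooled, and variants under 10 reads dropped. Fitness is the log change in variant-to-wild-type read ratio, rescaled to cognate 1, non-cognate 0.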

Variant | one-hybrid fitness for binding NBS DNA
TSQS | ≤ 0.2
TYNL | ≤ 0.2
GQGT | ≤ 0.2
GCTG | ≤ 0.2
TFKS | ≤ 0.2
REDC | ≤ 0.2
IAVF | ≤ 0.2
TNRC | ≤ 0.2
LSKF | ≤ 0.2
VDCN | ≤ 0.2
WKHL | ≤ 0.2
LGSG | ≤ 0.2
KMDK | ≤ 0.2
IHYR | ≤ 0.2
AMML | ≤ 0.2
ADPY | ≤ 0.2
LFPW | ≤ 0.2
VAMC | ≤ 0.2
NINM | ≤ 0.2
TCRY | ≤ 0.2
DSEM | ≤ 0.2
TQLL | ≤ 0.2
GVCN | ≤ 0.2
GASL | ≤ 0.2

Variant | one-hybrid fitness for binding NBS DNA
GLHC | ≤ 0.2
RLPM | ≤ 0.2
QYTF | ≤ 0.2
RTSL | ≤ 0.2
TSHE | ≤ 0.2
RHAP | ≤ 0.2
TLYP | ≤ 0.2
RRNE | ≤ 0.2
QMSD | ≤ 0.2
YSRP | ≤ 0.2
SCHR | ≤ 0.2
QMCG | ≤ 0.2
YSAN | ≤ 0.2
QNTS | ≤ 0.2
LRAD | ≤ 0.2
MTSP | ≤ 0.2
REVT | ≤ 0.2
RVHY | ≤ 0.2
RWTN | ≤ 0.2
LQKG | ≤ 0.2
RPKL | ≤ 0.2
RQLR | 0.359
LQEM | ≤ 0.2
ALHR | ≤ 0.2

Variant | one-hybrid fitness for binding NBS DNA
KVSV | ≤ 0.2
TLAR | ≤ 0.2
RVHQ | ≤ 0.2
AYYY | ≤ 0.2
YSGD | ≤ 0.2
VPPC | ≤ 0.2
VDTE | ≤ 0.2
TMHK | ≤ 0.2
SIRR | ≤ 0.2
DGTR | ≤ 0.2
SLKL | ≤ 0.2
QCGV | 0.221
QFRV | ≤ 0.2
ATPY | ≤ 0.2
RCMT | 0.492
SLSR | ≤ 0.2
RARL | ≤ 0.2
EKVL | ≤ 0.2
LGIW | ≤ 0.2
QKCR | 0.519
RQPT | ≤ 0.2
AFTL | ≤ 0.2
FPTC | ≤ 0.2
LETL | ≤ 0.2

Variant | one-hybrid fitness for binding NBS DNA
NTLW | ≤ 0.2
MYND | ≤ 0.2
KCGS | ≤ 0.2
PMHL | ≤ 0.2
HLGS | ≤ 0.2
SCMA | ≤ 0.2
IDLM | ≤ 0.2
KISS | ≤ 0.2
ILVC | ≤ 0.2
QIAI | ≤ 0.2
PWTC | ≤ 0.2
KTAM | ≤ 0.2
VQIN | ≤ 0.2
QSKQ | 0.351
LVPR | ≤ 0.2
LSLW | ≤ 0.2
EASC | ≤ 0.2
HADT | ≤ 0.2
HGTS | ≤ 0.2
TKKK | ≤ 0.2
GGAG | ≤ 0.2
RMQI | ≤ 0.2
RPDF | ≤ 0.2
STED | ≤ 0.2

Variant | one-hybrid fitness for binding NBS DNA
VLFY | ≤ 0.2
NLEH | ≤ 0.2
HQNL | ≤ 0.2
REMN | ≤ 0.2
WTNM | ≤ 0.2
RVYM | ≤ 0.2
FPQS | ≤ 0.2
QVKR | 0.786
EFTS | ≤ 0.2
LHFC | ≤ 0.2
NTDM | ≤ 0.2
QPRI | ≤ 0.2
PIHG | ≤ 0.2
AFDY | ≤ 0.2
QTSY | 0.296
RLRN | ≤ 0.2
RHVR | 0.248
LIHK | ≤ 0.2
TTTC | ≤ 0.2
PGPT | ≤ 0.2
PHVR | ≤ 0.2
PHVC | ≤ 0.2
QVWR | ≤ 0.2
CLSS | ≤ 0.2

Variant | one-hybrid fitness for binding NBS DNA
FAQW | ≤ 0.2
VGLS | ≤ 0.2
RKPC | ≤ 0.2
DPPI | ≤ 0.2
PPST | ≤ 0.2
RSWD | ≤ 0.2
WTGN | ≤ 0.2
HPSQ | ≤ 0.2
RFDA | ≤ 0.2
TLKA | ≤ 0.2
MYIG | ≤ 0.2
HSLP | ≤ 0.2
VFVT | ≤ 0.2
YAAN | ≤ 0.2
QHHW | ≤ 0.2
FCTR | ≤ 0.2
GMSY | ≤ 0.2
AWEW | ≤ 0.2
TMTY | ≤ 0.2
APIY | ≤ 0.2
RTLL | ≤ 0.2
APDC | ≤ 0.2
CNPA | ≤ 0.2
QSEG | ≤ 0.2

Variant | one-hybrid fitness for binding NBS DNA
PGGE | ≤ 0.2
ALYS | ≤ 0.2
LPIN | ≤ 0.2
LFQC | ≤ 0.2
TTNI | ≤ 0.2
IVAT | ≤ 0.2
ISKR | 0.243
QNHC | ≤ 0.2
TFYL | ≤ 0.2
VSAY | ≤ 0.2
LNGT | ≤ 0.2
VPRF | ≤ 0.2
ATDS | ≤ 0.2
PRGG | ≤ 0.2
AGTA | ≤ 0.2
FPDS | ≤ 0.2
KSHL | ≤ 0.2
HRKF | ≤ 0.2
TRKG | ≤ 0.2
SAPV | ≤ 0.2
VESK | ≤ 0.2
RHMV | ≤ 0.2
PRLD | ≤ 0.2
PWAM | ≤ 0.2

Variant | one-hybrid fitness for binding NBS DNA
SVNM | ≤ 0.2
YESV | ≤ 0.2
NHQM | ≤ 0.2
RTRT | 0.704
DWQR | ≤ 0.2
HAGY | ≤ 0.2
EAAG | ≤ 0.2
DQPY | ≤ 0.2
THIW | ≤ 0.2
AIAG | ≤ 0.2
FRYF | ≤ 0.2
ATVK | ≤ 0.2
PLKE | ≤ 0.2
WKQT | ≤ 0.2
ESGR | ≤ 0.2
SYSD | ≤ 0.2
SEMS | ≤ 0.2
HSWI | ≤ 0.2
PEMH | ≤ 0.2
QRML | 0.219
CYDS | ≤ 0.2
GWYG | ≤ 0.2
NTKP | ≤ 0.2
VCMM | ≤ 0.2

Variant | one-hybrid fitness for binding NBS DNA
GWMV | ≤ 0.2
PYQG | ≤ 0.2
SDYI | ≤ 0.2
FWTR | ≤ 0.2
CNWS | ≤ 0.2
VPDT | ≤ 0.2
LMYA | ≤ 0.2
HRAN | ≤ 0.2
TQFI | ≤ 0.2
FFNM | ≤ 0.2
TSKT | ≤ 0.2
TIFR | ≤ 0.2
QGGC | ≤ 0.2
AKHV | ≤ 0.2
SMVC | ≤ 0.2
LNNE | ≤ 0.2
DWKE | ≤ 0.2
ALKV | ≤ 0.2
TDQA | ≤ 0.2
PIRV | ≤ 0.2
SGFC | ≤ 0.2
IGCG | ≤ 0.2
VFSF | ≤ 0.2
PCRT | ≤ 0.2

Variant | one-hybrid fitness for binding NBS DNA
QEQS | ≤ 0.2
PKLN | ≤ 0.2
ALCR | ≤ 0.2
RMHW | ≤ 0.2
QDQP | ≤ 0.2
QCNV | ≤ 0.2
HKYT | ≤ 0.2
YKRY | ≤ 0.2
AMDR | ≤ 0.2
PQPY | ≤ 0.2
PYQA | ≤ 0.2
WSLQ | ≤ 0.2
PEAF | ≤ 0.2
CYPF | ≤ 0.2
TLLR | ≤ 0.2
MNRA | ≤ 0.2
CGGR | ≤ 0.2
LDYG | ≤ 0.2
WQKR | 0.279
RCQY | ≤ 0.2
EAYD | ≤ 0.2
RVIY | ≤ 0.2
CMDR | ≤ 0.2
QETD | ≤ 0.2

Variant | one-hybrid fitness for binding NBS DNA
TTMR | ≤ 0.2
GNDL | ≤ 0.2
SYNG | ≤ 0.2
NETS | ≤ 0.2
KYGS | ≤ 0.2
CPPG | ≤ 0.2
PRLG | ≤ 0.2
TSRA | ≤ 0.2
RIKV | ≤ 0.2
KQEG | ≤ 0.2
WTSA | ≤ 0.2
YCSD | ≤ 0.2
RVDH | ≤ 0.2
QSDC | ≤ 0.2
WIIS | ≤ 0.2
WYWG | ≤ 0.2
RLDE | ≤ 0.2
YMTD | ≤ 0.2
PYIR | ≤ 0.2
LRER | ≤ 0.2
HPNV | ≤ 0.2
RCLH | ≤ 0.2
WNMG | ≤ 0.2
SDNY | ≤ 0.2

Variant | one-hybrid fitness for binding NBS DNA
HKFW | ≤ 0.2
TLAW | ≤ 0.2
SATC | ≤ 0.2
HARN | ≤ 0.2
DEAG | ≤ 0.2
KAGI | ≤ 0.2
AFLD | ≤ 0.2
QVHK | ≤ 0.2
SANR | ≤ 0.2
LHPC | ≤ 0.2
YTRA | ≤ 0.2
TLCV | ≤ 0.2
SQKT | ≤ 0.2
EFER | 0.262
ATAS | ≤ 0.2
MLYR | ≤ 0.2
PVRN | ≤ 0.2
HASG | ≤ 0.2
GRHD | ≤ 0.2
YSEC | ≤ 0.2
LKHE | ≤ 0.2
LLSA | ≤ 0.2
AGKQ | ≤ 0.2
PPFC | ≤ 0.2

Variant | one-hybrid fitness for binding NBS DNA
ETRR | 0.261
QLPW | ≤ 0.2
HLWG | ≤ 0.2
MAAL | ≤ 0.2
QRAT | 0.797
HCMV | ≤ 0.2
TGIN | ≤ 0.2
VQQL | ≤ 0.2
MSQC | ≤ 0.2
IPYV | ≤ 0.2
VCHQ | ≤ 0.2
SKQR | ≤ 0.2
RMWG | ≤ 0.2
KRAT | 0.572
DHCV | ≤ 0.2
LGLG | ≤ 0.2
QLMW | ≤ 0.2
VCAG | ≤ 0.2

Source: a collection of fitness landscapes (doi:10.1016/j.celrep.2020.107928)
